Experimental findings from the supplement of paper PMC4604168 (melanoma cell lines) are described below.

The list shows a part of the results. Single values are uncertain, as repeats are few or missing.

Common to all, as to experiment: cell count relative to DMSO control; melanoma cells; higher = more viable cells
One test has as its system 501Mel. Particulars: library dose: standard library concentration; 72 h.
For a further test, the system named is A101D. The following applies: library dose: standard library concentration; 72 h.
The next test relates to A2058. The following applies: library dose: standard library concentration; 72 h.
The next test relates to A375. Particulars: library dose: standard library concentration; 72 h.
The test system of the next test is WM115. Particulars: library dose: low library concentration; 72 h.
Another test concerns WM1716. Particulars: library dose: low library concentration; 72 h.
The test system of another test is WM1745. Particulars: library dose: low library concentration; 72 h.
In the next test the test system is WM3526. Particulars: library dose: low library concentration; 72 h.
A further test deals with WM3619. Particulars: library dose: low library concentration; 72 h.
Another test has as its system WM451Lu. The following applies: library dose: low library concentration; 72 h.

Turning to `C[C@]1(c2nc3c(C(N)=O)cccc3[nH]2)CCCN1` [Veliparib] + O=C(Nc1ccccc1)c1cc([N+](=O)[O-])ccc1Cl [GW9662] (first compound 7 µM, partner dose 10 µM), the cell count in the test on 501Mel was found to be 68.1%; in the test on A101D it was 78.9%; with A2058, 66%; with A375 it was 118%.
On to `Cc1nc(Nc2ncc(C(=O)Nc3c(C)cccc3Cl)s2)cc(N2CCN(CCO)CC2)n1` [dasatanib] + Cn1nnc2c(C(N)=O)ncn2c1=O [temozolomide] (first compound 0.004 µM, partner dose 2 µM), for which the cell count with WM115 was determined as 81.8%; in the test with WM1716 it was 67.5%; in the test on WM1745, 78.6%; in the test with WM3526, 98.4%; with WM3619, 106%; in the test with WM451Lu, 87.9%.
`Cc1nc(Nc2ncc(C(=O)Nc3c(C)cccc3Cl)s2)cc(N2CCN(CCO)CC2)n1` [dasatanib] + OCCn1cc(-c2cnc3nnn(Cc4ccc5ncccc5c4)c3n2)cn1 [PF04217903] (first compound 0.004 µM, partner dose 1 µM): the cell count worked out at 75.5% in the test with WM115; 63.2% in the test on WM1716; 58.9% in the test on WM1745; 116% in the test on WM3526; 76.3% with WM3619; 64.6% in the test with WM451Lu.
Regarding `NCC(=O)Nc1ccc(-n2nc(C(F)(F)F)cc2-c2ccc3c(ccc4ccccc43)c2)cc1` + N#Cc1c(O)c2c(-c3ccc(-c4ccccc4O)cc3)csc2[nH]c1=O [A769662] (first compound 5 µM, partner dose 10 µM), the cell count with 501Mel amounted to 1.87%; with A101D, 66.6%; in the test on A2058, 84.2%; in the test on A375, 46.2%.
As to `NC(=O)Nc1cc(-c2cccc(F)c2)sc1C(=O)N[C@H]1CCCNC1` + O=S(=O)(c1ccccc1)N(CC(F)(F)F)c1ccc(C(O)(C(F)(F)F)C(F)(F)F)cc1 [T0901317] (first compound 0.1 µM, partner dose 7 µM), the cell count came to 74.7% with 501Mel, 77.4% in the test on A101D, 83% in the test on A2058 and 67.9% with A375.
For `C=CCn1c(=O)c2cnc(Nc3ccc(N4CCN(C)CC4)cc3)nc2n1-c1cccc(C(C)(C)O)n1` + COc1ccc2c(c1)CCC1C2CCC2(C)C(NCCCCCCN3C(=O)C=CC3=O)CCC12 [U73122] (first compound 0.02 µM, partner dose 0.4 µM), the cell count stood at 80.7% in the test with WM115; 69.5% in the test on WM1716; 84.6% with WM1745; 107% with WM3526; 67.6% with WM3619; 103% in the test on WM451Lu.
`NCC(=O)Nc1ccc(-n2nc(C(F)(F)F)cc2-c2ccc3c(ccc4ccccc43)c2)cc1` + O=C(Nc1ccccc1)c1cc([N+](=O)[O-])ccc1Cl [GW9662] (first compound 5 µM, partner dose 10 µM): the cell count was found to be 9.13% in the test with 501Mel, 74.9% in the test with A101D, 84.7% with A2058 and 67.1% in the test on A375.
For the compound `OCCn1cc(-c2cnc3nnn(Cc4ccc5ncccc5c4)c3n2)cn1` + COc1ccc(COc2ccc(Cc3cnc(N)nc3N)cc2OC)cc1 [GW2580] (first compound 1 µM, partner dose 1 µM), the cell count was 102% in the test on WM115; 93.3% in the test with WM1716; 104% with WM1745; 77.5% in the test with WM3526; 74.2% with WM3619; 103% in the test with WM451Lu.
Turning to `OCCn1cc(-c2cnc3nnn(Cc4ccc5ncccc5c4)c3n2)cn1` + O=S(=O)(c1ccccc1)N(CC(F)(F)F)c1ccc(C(O)(C(F)(F)F)C(F)(F)F)cc1 [T0901317] (first compound 5 µM, partner dose 7 µM), the cell count with 501Mel came to 109%; in the test with A101D it was 85.9%; in the test on A2058 it was 99.3%; in the test with A375 it was 92.8%.
The corresponding values for `CO[C@@H]1[C@H](N(C)C(=O)c2ccccc2)C[C@H]2O[C@]1(C)n1c3ccccc3c3c4c(c5c6ccccc6n2c5c31)C(=O)NC4` [Midostaurin] + CCCCCCCCCCCC1=C(O)C(=O)C=C(O)C1=O [Embelin] (first compound 0.4 µM, partner dose 6 µM) are 87.8%, 97.5%, 47.8% and 59.9%.
As to `OCCn1cc(-c2cnc3nnn(Cc4ccc5ncccc5c4)c3n2)cn1` + COc1ccc(COc2ccc(Cc3cnc(N)nc3N)cc2OC)cc1 [GW2580] (first compound 5 µM, partner dose 5 µM), the cell count in the test with 501Mel amounted to 75%; in the test with A101D it was 123%; with A2058 it was 104%; in the test on A375, 99%.
With `OCCn1cc(-c2cnc3nnn(Cc4ccc5ncccc5c4)c3n2)cn1` + COC(=O)c1sccc1S(=O)(=O)Nc1ccc(Nc2ccccc2)cc1OC [GSK0660] (first compound 5 µM, partner dose 5 µM), the cell count in the test with 501Mel amounted to 96.4%; with A101D, 101%; in the test on A2058, 86.1%; in the test with A375 it was 85.8%.
Regarding `Cc1nc(Nc2ncc(C(=O)Nc3c(C)cccc3Cl)s2)cc(N2CCN(CCO)CC2)n1` [dasatanib] + O=C(Nc1cccc(Cl)c1)Nc1ncc(CCNc2ncnc3ccsc23)s1 [SNS314] (first compound 0.004 µM, partner dose 0.0008 µM), the cell count was found to be 53.5% in the test on WM115; 83.8% in the test with WM1716; 61.1% in the test with WM1745; 91.2% in the test on WM3526; 92.5% in the test with WM3619; 70.1% in the test on WM451Lu.
